Experimental data: the supplement of paper PMC8728848
The other results are listed elsewhere or left out.

Tests used:
Experiment in all cases: glycan array binding signal (z-score within array); higher = stronger binding
Conditions in all cases: glycan notation: IUPAC condensed, linker removed
[1] = molecular target: GlcNAc(a1-6)Gal(b1-4)GlcNAc
In short: (§1)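 Columns mapping to the same glycan were averaged after glycan names were converted to IUPAC-condensed notation. The data come from 3228 arrays in the Consortium for Functional Glycomics database, limited to those with an available protein sequence. Binding is reported as a within-array Z-score averaged across arrays of one protein sequence and across linkers.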

[2] = molecular target: GlcNAc(b1-2)Gal(b1-3)GalNAc
In short: as §1

[3] = molecular target: GlcNAc(b1-2)Man(a1-3)[GlcNAc(b1-2)Man(a1-6)]Man(b1-4)GlcNAc(b1-4)GlcNAc
In short: as §1

[4] = molecular target: GlcNAc(b1-2)Man(a1-3)[GlcNAc(b1-2)Man(a1-6)]Man(b1-4)GlcNAc(b1-4)[Fuc(a1-6)]GlcNAc
In short: as §1

[5] = molecular target: GlcNAc(b1-2)Man(a1-3)[GlcNAc(b1-4)][GlcNAc(b1-2)Man(a1-6)]Man(b1-4)GlcNAc(b1-4)GlcNAc
In short: as §1

[6] = molecular target: GlcNAc(b1-2)Man(a1-3)[GlcNAc(b1-4)][GlcNAc(b1-2)Man(a1-6)]Man(b1-4)GlcNAc(b1-4)[Fuc(a1-6)]GlcNAc
In short: as §1

[7] = molecular target: GlcNAc(b1-2)[GlcNAc(b1-4)]Man(a1-3)[GlcNAc(b1-2)Man(a1-6)]Man(b1-4)GlcNAc(b1-4)GlcNAc
In short: as §1

[8] = molecular target: GlcNAc(b1-2)[GlcNAc(b1-4)]Man(a1-3)[GlcNAc(b1-4)][GlcNAc(b1-2)Man(a1-6)]Man(b1-4)GlcNAc(b1-4)GlcNAc
In short: as §1

[9] = molecular target: GlcNAc(b1-2)[GlcNAc(b1-4)]Man(a1-3)[GlcNAc(b1-4)][GlcNAc(b1-2)[GlcNAc(b1-6)]Man(a1-6)]Man(b1-4)GlcNAc(b1-4)GlcNAc
In short: as §1

[10] = molecular target: GlcNAc(b1-2)[GlcNAc(b1-4)]Man(a1-3)[GlcNAc(b1-4)][GlcNAc(b1-2)[GlcNAc(b1-6)]Man(a1-6)]Man(b1-4)GlcNAc(b1-4)[Fuc(a1-6)]GlcNAc
In short: as §1

[11] = molecular target: GlcNAc(b1-2)[GlcNAc(b1-6)]Man(a1-6)[GlcNAc(b1-2)Man(a1-3)]Man(b1-4)GlcNAc(b1-4)GlcNAc
In short: as §1

[12] = molecular target: GlcNAc(b1-2)[GlcNAc(b1-6)]Man(a1-6)[GlcNAc(b1-2)Man(a1-3)]Man(b1-4)GlcNAc(b1-4)[Fuc(a1-6)]GlcNAc
In short: as §1

[13] = molecular target: GlcNAc(b1-2)[GlcNAc(b1-6)]Man(a1-6)[GlcNAc(b1-4)][GlcNAc(b1-2)Man(a1-3)]Man(b1-4)GlcNAc(b1-4)GlcNAc
In short: as §1

GlcNAc(b1-3)Fuc = molecular target: GlcNAc(b1-3)Fuc
In short: as §1

GlcNAc(b1-3)Gal = molecular target: GlcNAc(b1-3)Gal
In short: as §1

[14] = molecular target: GlcNAc(b1-3)Gal(b1-3)GalNAc
In short: as §1

GlcNAc(b1-3)Gal(b1-4)Glc = molecular target: GlcNAc(b1-3)Gal(b1-4)Glc
In short: as §1

[15] = molecular target: GlcNAc(b1-3)Gal(b1-4)GlcNAc
In short: as §1

[16] = molecular target: GlcNAc(b1-3)Gal(b1-4)GlcNAc(b1-2)Man(a1-3)[GlcNAc(b1-3)Gal(b1-4)GlcNAc(b1-2)Man(a1-6)]Man(b1-4)GlcNAc(b1-4)GlcNAc
In short: as §1

[17] = molecular target: GlcNAc(b1-3)Gal(b1-4)GlcNAc(b1-2)Man(a1-3)[GlcNAc(b1-3)Gal(b1-4)GlcNAc(b1-2)Man(a1-6)]Man(b1-4)GlcNAc(b1-4)[Fuc(a1-6)]GlcNAc
In short: as §1

[18] = molecular target: GlcNAc(b1-3)Gal(b1-4)GlcNAc(b1-2)[GlcNAc(b1-3)Gal(b1-4)GlcNAc(b1-6)]Man(a1-6)[GlcNAc(b1-3)Gal(b1-4)GlcNAc(b1-2)Man(a1-3)]Man(b1-4)GlcNAc(b1-4)GlcNAc
In short: as §1

[19] = molecular target: GlcNAc(b1-3)Gal(b1-4)GlcNAc(b1-3)Gal(b1-4)GlcNAc
In short: as §1

[20] = molecular target: GlcNAc(b1-3)Gal(b1-4)GlcNAc(b1-3)Gal(b1-4)GlcNAc(b1-2)Man(a1-3)[GlcNAc(b1-3)Gal(b1-4)GlcNAc(b1-3)Gal(b1-4)GlcNAc(b1-2)Man(a1-6)]Man(b1-4)GlcNAc(b1-4)GlcNAc
In short: as §1

[21] = molecular target: GlcNAc(b1-3)Gal(b1-4)GlcNAc(b1-3)Gal(b1-4)GlcNAc(b1-2)Man(a1-3)[GlcNAc(b1-3)Gal(b1-4)GlcNAc(b1-3)Gal(b1-4)GlcNAc(b1-2)Man(a1-6)]Man(b1-4)GlcNAc(b1-4)[Fuc(a1-6)]GlcNAc
In short: as §1

[22] = molecular target: GlcNAc(b1-3)Gal(b1-4)GlcNAc(b1-3)Gal(b1-4)GlcNAc(b1-2)[GlcNAc(b1-3)Gal(b1-4)GlcNAc(b1-3)Gal(b1-4)GlcNAc(b1-6)]Man(a1-6)[GlcNAc(b1-3)Gal(b1-4)GlcNAc(b1-3)Gal(b1-4)GlcNAc(b1-2)Man(a1-3)]Man(b1-4)GlcNAc(b1-4)[Fuc(a1-6)]GlcNAc
In short: as §1

[23] = molecular target: GlcNAc(b1-3)Gal(b1-4)GlcNAc(b1-3)Gal(b1-4)GlcNAc(b1-3)Gal(b1-4)GlcNAc(b1-2)Man(a1-3)[GlcNAc(b1-3)Gal(b1-4)GlcNAc(b1-3)Gal(b1-4)GlcNAc(b1-3)Gal(b1-4)GlcNAc(b1-2)Man(a1-6)]Man(b1-4)GlcNAc(b1-4)GlcNAc
In short: as §1

[24] = molecular target: GlcNAc(b1-3)Gal(b1-4)GlcNAc(b1-3)Gal(b1-4)GlcNAc(b1-3)Gal(b1-4)GlcNAc(b1-2)Man(a1-3)[GlcNAc(b1-3)Gal(b1-4)GlcNAc(b1-3)Gal(b1-4)GlcNAc(b1-3)Gal(b1-4)GlcNAc(b1-2)Man(a1-6)]Man(b1-4)GlcNAc(b1-4)[Fuc(a1-6)]GlcNAc
In short: as §1

[25] = molecular target: GlcNAc(b1-3)Gal(b1-4)GlcNAc(b1-3)Gal(b1-4)GlcNAc(b1-3)Gal(b1-4)GlcNAc(b1-2)[GlcNAc(b1-3)Gal(b1-4)GlcNAc(b1-3)Gal(b1-4)GlcNAc(b1-3)Gal(b1-4)GlcNAc(b1-6)]Man(a1-6)[GlcNAc(b1-3)Gal(b1-4)GlcNAc(b1-3)Gal(b1-4)GlcNAc(b1-3)Gal(b1-4)GlcNAc(b1-2)Man(a1-3)]Man(b1-4)GlcNAc(b1-4)[Fuc(a1-6)]GlcNAc
In short: as §1

[26] = molecular target: GlcNAc(b1-3)Gal(b1-4)GlcNAc(b1-3)Gal(b1-4)GlcNAc(b1-3)Gal(b1-4)GlcNAc(b1-3)Gal(b1-4)GlcNAc(b1-2)Man(a1-3)[GlcNAc(b1-3)Gal(b1-4)GlcNAc(b1-3)Gal(b1-4)GlcNAc(b1-3)Gal(b1-4)GlcNAc(b1-3)Gal(b1-4)GlcNAc(b1-2)Man(a1-6)]Man(b1-4)GlcNAc(b1-4)GlcNAc
In short: as §1

[27] = molecular target: GlcNAc(b1-3)Gal(b1-4)GlcNAc(b1-3)Gal(b1-4)GlcNAc(b1-3)Gal(b1-4)GlcNAc(b1-3)Gal(b1-4)GlcNAc(b1-2)Man(a1-3)[GlcNAc(b1-3)Gal(b1-4)GlcNAc(b1-3)Gal(b1-4)GlcNAc(b1-3)Gal(b1-4)GlcNAc(b1-3)Gal(b1-4)GlcNAc(b1-2)Man(a1-6)]Man(b1-4)GlcNAc(b1-4)[Fuc(a1-6)]GlcNAc
In short: as §1

[28] = molecular target: GlcNAc(b1-3)Gal(b1-4)GlcNAc(b1-3)Gal(b1-4)GlcNAc(b1-3)Gal(b1-4)GlcNAc(b1-3)Gal(b1-4)GlcNAc(b1-2)[GlcNAc(b1-3)Gal(b1-4)GlcNAc(b1-3)Gal(b1-4)GlcNAc(b1-3)Gal(b1-4)GlcNAc(b1-3)Gal(b1-4)GlcNAc(b1-6)]Man(a1-6)[GlcNAc(b1-3)Gal(b1-4)GlcNAc(b1-3)Gal(b1-4)GlcNAc(b1-3)Gal(b1-4)GlcNAc(b1-3)Gal(b1-4)GlcNAc(b1-2)Man(a1-3)]Man(b1-4)GlcNAc(b1-4)[Fuc(a1-6)]GlcNAc
In short: as §1

[29] = molecular target: GlcNAc(b1-3)Gal(b1-4)GlcNAc(b1-3)Gal(b1-4)GlcNAc(b1-3)GalNAc
In short: as §1

[30] = molecular target: GlcNAc(b1-3)Gal(b1-4)GlcNAc(b1-3)GalNAc
In short: as §1

[31] = molecular target: GlcNAc(b1-3)Gal(b1-4)GlcNAc(b1-3)[GlcNAc(b1-3)Gal(b1-4)GlcNAc(b1-3)]GalNAc
In short: as §1

[32] = molecular target: GlcNAc(b1-3)Gal(b1-4)GlcNAc(b1-6)[Gal(b1-3)]GalNAc
In short: as §1

[33] = molecular target: GlcNAc(b1-3)Gal(b1-4)GlcNAc(b1-6)[GlcNAc(b1-3)Gal(b1-3)]GalNAc
In short: as §1

[34] = molecular target: GlcNAc(b1-3)Gal(b1-4)GlcNAc(b1-6)[GlcNAc(b1-3)]Gal(b1-4)GlcNAc
In short: as §1

B1: Arath Fbox (Arabidopsis thaliana), NP_178341.1 (protein)
chain: EFTWGRKRRVKSESSPFDSFPEDCISYIISFTNPRDACVAATVSKTFESTVKSDIIWEKFLPADYESLIPPSRVFSSKKELYFSLCNDPVLFDDDKKSVWLEKASGKRCLMLSAMNLSIIWGDNPQYWQWIPIPESRFEKVAKLRDVCWFEIRGRTNTRVLSPRTRYSAYIVFKGVDKCYGFQNVAIEAAVGVVGQEPSRRLICFSEAIRRGRRNVVKPKQREDGWMEIELGEFFNDGGIMDNDEIEMSALETKQLNRKCGLIIQGIEIRPAKILAAAAASFLEQKLISEEDLNSAVDHHHHHH
- glycan array binding signal (z-score) [1]: -0.537
- glycan array binding signal (z-score) [2]: -0.422
- glycan array binding signal (z-score) [3]: 0.568
- glycan array binding signal (z-score) [4]: 0.585
- glycan array binding signal (z-score) [5]: -0.729
- glycan array binding signal (z-score) [6]: -0.554
- glycan array binding signal (z-score) [7]: -0.742
- glycan array binding signal (z-score) [8]: -0.576
- glycan array binding signal (z-score) [9]: -0.398
- glycan array binding signal (z-score) [10]: -0.755
- glycan array binding signal (z-score) [11]: -0.389
- glycan array binding signal (z-score) [12]: -0.622
- glycan array binding signal (z-score) [13]: -0.608
- glycan array binding signal (z-score) (GlcNAc(b1-3)Fuc): -0.748
- glycan array binding signal (z-score) (GlcNAc(b1-3)Gal): -0.618
- glycan array binding signal (z-score) [14]: -0.548
- glycan array binding signal (z-score) (GlcNAc(b1-3)Gal(b1-4)Glc): -0.396
- glycan array binding signal (z-score) [15]: -0.583
- glycan array binding signal (z-score) [16]: -0.61
- glycan array binding signal (z-score) [17]: -0.348
- glycan array binding signal (z-score) [18]: 0.161
- glycan array binding signal (z-score) [19]: -0.619
- glycan array binding signal (z-score) [20]: 0.848
- glycan array binding signal (z-score) [21]: -0.597
- glycan array binding signal (z-score) [22]: 1.27
- glycan array binding signal (z-score) [23]: -0.547
- glycan array binding signal (z-score) [24]: -0.361
- glycan array binding signal (z-score) [25]: -0.525
- glycan array binding signal (z-score) [26]: 1.1
- glycan array binding signal (z-score) [27]: -0.585
- glycan array binding signal (z-score) [28]: -0.47
- glycan array binding signal (z-score) [29]: -0.761
- glycan array binding signal (z-score) [30]: -0.539
- glycan array binding signal (z-score) [31]: -0.051
- glycan array binding signal (z-score) [32]: -0.687
- glycan array binding signal (z-score) [33]: -0.679
- glycan array binding signal (z-score) [34]: -0.747
